Data reported in ChEMBL document CHEMBL1157539, “Thousands of chemical starting points for antimalarial lead identification” (Nature, 2010).
Whole data set: some 13,000 compounds, median “IFI” near 4, cut for the highest 2% near 17. The list shows a part of the results.

Assay: GSK_TCMDC: Inhibition Frequency Index (IFI). The number of non-kinase HTS assays where a compound showed > 50 % inhibition, expressed as a percentage of the number of such assays in which the compound was tested (-0 is zero)
Assay type: functional

Row | SMILES | IFI
1 | C#CCCC(=O)Nc1cccc(-c2cccc(-c3nc4cccc(C)c4[nH]3)c2)c1 | 4.55%
2 | CCOCn1c(-c2ccccc2)cc2c3c(N)nc(N)nc3ccc21 | 4.29%
3 | C1=CN(Cc2ccccc2)C=CC1=C1C=Nc2ccccc21 | 2.31%
4 | Cc1cc2c3c(N)nc(N)nc3ccc2n1C | 5.51%
5 | CCCCCN1CCC(NC(=O)c2ccc(C(=O)Nc3ccc(C(C)C)cc3)cc2)CC1 | 4.35%
6 | Cc1cc(C)n2nc(C(=O)Nc3cc(C(F)(F)F)ccc3N3CCOCC3)nc2n1 | 0.69%
7 | CCCCCC(C)N/C(=N/c1cccc(Cl)c1Cl)Nc1ccc(C#N)cc1O (stereo unspecified) | 6.43%
8 | CC(C)[C@H](NC(=O)c1ccc(O)c(-c2ccc(Cl)c(Cl)c2)c1)C(=O)NCCN(C)C | 0%
9 | O=C(Nc1cccc(CN2CCCN(Cc3ccsc3)CC2)c1)c1cc2ccccc2s1 | 7.33%
10 | COc1ccc(C(=O)Nc2ccc(-c3ccc([N+](=O)[O-])cc3)cc2)cc1CCCN(C)C | 2.34%
11 | Nc1nc(N)c2c(ccc3[nH]ccc32)n1 | 2.84%
12 | O=[N+]([O-])c1cccc(CNC2CCN(Cc3ccc(C(F)(F)F)cc3)CC2)c1 | 1.41%
13 | COc1ccccc1NC(=O)Nc1ccc(-c2ccc(-c3nc4cccc(C)c4[nH]3)s2)cc1 | 6%
14 | Cc1nc(N)nc(N)c1OCc1cccc2c1ccc1ccccc12 | 1.44%
15 | CC[C@H](C)CNC(=O)c1cccc(-c2cccc(CNCC3CNCCCO3)c2)n1 (stereo partly specified) | 10.3%
16 | NC(=O)c1cccc(C(=O)Nc2cccc(-c3cccc(-c4nc5cc(C(F)(F)F)ccc5[nH]4)c3)c2)c1 | 5.77%
17 | Cc1ccc(Nc2nc(C)cc(NC3CCCC3)n2)cc1 | 21.3%
18 | Oc1ccc2ccccc2c1C=NNc1nc(=Nc2ccccc2)nc(N2CCOCC2)[nH]1 | 3.68%
19 | Cc1[nH]c2ccccc2c1C1CCN(CCCCNC(=O)c2ccc(-c3ccc(C#N)cc3)cc2)CC1 | 0.93%
20 | COc1ccc(-c2ccc(NC(=O)c3cccc(Cl)c3)c(F)c2)cc1CNC(C)C | 6.06%
21 | COc1ccc2nccc([C@@H](O)CN3CCC(NCC(O)Cc4ccccc4)CC3)c2c1 (stereo partly specified) | 1.48%
22 | CCCN1CCN(CCCNC(=O)c2cc3c(-c4ccc(Cl)cc4)nn(C)c3s2)CC1 | 6.12%
23 | Cc1cc(N[C@@H](Cc2ccccc2)C(=O)Nc2ccccc2)nc(NCCc2ccc(F)cc2)n1 | 6.82%

Row | SMILES | IFI
24 | COc1ccc(NC(=O)c2ccc(-c3nc(-c4ccc(Cl)cc4)cs3)cc2)cc1N1CCN(C)CC1 | 6.42%
25 | CN(C)CCCNCc1ccc(-c2ccc(F)c(Cl)c2)o1 | 6.94%
26 | O=C(/C=C/c1ccc(Cl)c(Cl)c1)NC1CCC(CN2CCC(c3nc4cccnc4[nH]3)CC2)CC1 (stereo unspecified) | 4.96%
27 | O=C(NCc1ccco1)c1ccc(CN2CCN(C(c3ccccc3)c3ccccc3)CC2)cc1 | 2.14%
28 | Cc1noc(C)c1-c1ccc2c(Nc3ccc(Cl)cc3)c(C(N)=O)cnc2c1 | 4.07%
29 | COc1ccc(CNCc2ccsc2)cc1-c1ccc(S(=O)(=O)NCCN2CCCC2)s1 | 9.26%
30 | COc1ccc(OC)c(Cc2c(C)nc3nc(N)nc(N)c3c2C)c1 | 1.46%
31 | CN(C)c1ccc(/C=C2\S/C(=N\c3ccccc3)N(c3ccccc3)C2=O)cc1[N+](=O)[O-] | 0.77%
32 | CC(=O)Nc1cccc(C(=O)Nc2cccc(-c3cccc(-c4nc5ccccc5[nH]4)c3)c2)c1 | 7.14%
33 | COc1ccccc1-c1cc(C(=O)N2CCN(S(=O)(=O)c3ccc(C)cc3)CC2)[nH]n1 | 7.02%
34 | CCCCNCc1cc(Cl)c2ccccc2c1O | 6.77%
35 | CC(C)[C@H](NC(=O)c1c(F)cccc1F)C(=O)Nc1ccc(Cc2nc3ccccc3s2)cc1 | 1.96%
36 | CS(=O)(=O)Nc1ccc2c(C3CCN(CCC4CCN(C(=O)/C=C/c5ccc(Cl)c(Cl)c5)CC4)CC3)c[nH]c2c1 | 6.47%
37 | Cc1cccc(NC(c2cccs2)c2c(NC(=O)c3ccccc3)sc(C)c2C)n1 (stereo unspecified) | 4.65%
38 | O=[N+]([O-])c1cccc(NC(=S)N2CCCN(Cc3ccc(C(F)(F)F)cc3)CC2)c1 | 2.96%
39 | Cn1nccc1C(=O)NCCNCc1ccc(-c2cccc(-c3nc4cc(F)ccc4[nH]3)c2)cc1 | 5.83%
40 | O=C(NCCCCN1CCC(c2ccc(C(F)(F)F)cc2C(F)(F)F)CC1)c1ccc(NC(=O)c2ccc(Cl)cc2)cc1 | 1.5%
41 | CCCCCN1CCCN(Cc2cccc(NC(=O)c3ccc(-c4ccccc4)cc3)c2)CC1 | 6.16%
42 | CN1CCN(S(=O)(=O)c2cccc(Nc3nccc(N(C)c4ccc5c(c4)nc(NC(=O)c4cccs4)n5C)n3)c2)CC1 | 2.26%
43 | CCn1c(CN2CCC(C)CC2)nc2cc(NC(=O)c3cccs3)ccc21 | 4.17%
44 | CNS(=O)(=O)Cc1ccc(Nc2nccc(Nc3cccc4c3cnn4C(=O)Nc3ccccc3)n2)cc1 | 14.3%
45 | O=C(Nc1ccc2c(c1)OCO2)c1cc(-c2cccnc2)cnc1NCc1ccc2c(c1)OCO2 | 0%
46 | Cc1cc(=NN=Cc2ccccc2Cl)c2cc(F)ccc2[nH]1 | -0%

Row | SMILES | IFI
47 | Cc1cc2c(cc1C(F)(F)F)N(C(=O)Nc1ccc(OCCN(C)C)c(C(F)(F)F)c1)CC2 | 7.35%
48 | CCOc1ccc(Nc2cc(C)nc(Nc3ccc(OCC)cc3)n2)cc1 | 0.71%
49 | Brc1ccc(Nc2nc(NCc3ccccc3)c3ccccc3n2)cc1 | 6.57%
50 | NS(=O)(=O)c1ccc(CNC(=O)c2cnc3c(O)cccc3c2Nc2cccc(NC(=O)c3ccc(Cl)c(Cl)c3)c2)cc1 | 9.3%
51 | O=C(Nc1cccc(-c2ccc(-c3nc4cc(C(F)(F)F)ccc4[nH]3)cc2)c1)c1ccoc1 | 6.19%
52 | CCc1cn2c3c(cc(C(=O)N[C@@H](Cc4ccccc4)[C@H](O)CNCc4ccccc4)cc13)N(C)S(=O)(=O)CC2 | 2.17%
53 | Cc1[nH]c(C)c(-c2ccc(Oc3cccc(C(F)(F)F)c3)cc2)c(=O)c1Br | 4.58%
54 | Cc1cc(-c2cccc(CNCCc3ccc(Cl)cc3)c2)cnc1N | 2.26%
55 | OC(CNCCCCCCNCC(O)c1ccc(Cl)c(Cl)c1)c1ccc(Cl)c(Cl)c1 (stereo unspecified) | 11.7%
56 | CCC(CC)CN1C(=O)C(c2ccccc2)(c2ccccc2)N=C1N | 3.7%
57 | COc1ccc(OC)c(Cc2cnc3nc(N)[nH]c(=O)c3c2C)c1 | 1.35%
58 | CCCc1cc(Cc2cnc(N)nc2N)cc(OCCCCCC(=O)O)c1OC | 0.7%
59 | O=S(=O)(NCCN1CCCC1)c1cccc(-c2ccc(CNCc3ccc(F)cc3)cc2)c1 | 12%
60 | Cc1nc(-c2ccc(-c3ccc(NC(=O)Nc4ccc(I)c(OCCN(C)C)c4)cc3)c(C)c2)no1 | 7.3%
61 | C=C[C@H]1CN(CCCCCCC)CC[C@H]1CC(O)Cc1ccnc2cc(O)c(OC)cc12 (stereo partly specified) | 2.21%
62 | CCCCCC(C)C(C)c1cc(OC(N)=O)c2c(c1)OC(C)(C)C=C2c1ccncc1 (stereo unspecified) | 0%
63 | CCCc1cc(C(=O)N[C@@H](Cc2ccccc2)[C@H](O)CNC(C)(C)c2cccc(OC)c2)c(F)c(N2CCCC2=O)c1 | 3.65%
64 | C#CC(C)(CO)N1CCCC1 (stereo unspecified) | 0.72%
65 | CN(C)c1ccc(C=C2SC(=N)N(c3nccs3)C2=O)cc1 | 10.1%
66 | CCC(=O)NC(c1ccco1)c1cc(Cl)c2cccnc2c1O (stereo unspecified) | 4.35%
67 | O=C(Nc1ccc(Cl)cc1)Nc1ccc2c(c1)N1CCN=C1S2 | 2.82%
68 | CC1CN(Cc2cccc(F)c2)CCN1c1ccc(NC(=O)c2cccs2)cc1 (stereo unspecified) | 0%
69 | COc1cc2cc(Cc3cnc(N)nc3N)ccc2c(OC)c1OC | 1.47%

Row | SMILES | IFI
70 | CCC(=O)N(c1ccccc1)C1CCN(CCCC(NC(=O)Nc2cc(C(F)(F)F)cc(C(F)(F)F)c2)c2ccc(Cl)c(Cl)c2)CC1 (stereo unspecified) | 6.38%
71 | NS(=O)(=O)c1cccc(Nc2nccc(-c3c(-c4cccc(NC(=O)c5c(F)cccc5F)c4)nn4ccccc34)n2)c1 | 7.86%
72 | CCN(CCCN1CCCCC1)c1cc(C)nc(Nc2cccc(OC(F)(F)F)c2)n1 | 7.59%
73 | CCN1CCC(N(Cc2ccc(-c3ccc(C(F)(F)F)s3)cc2)C(=O)Cn2c(CCc3cccc(F)c3F)nc(=O)c3ccccc32)CC1 | 8.39%
74 | O=C(Nc1ccc(S(=O)(=O)N2CCOCC2)cc1)c1cc(-c2cc(Cl)ccc2O)n[nH]1 | 10.6%
75 | Nc1ccc(-c2ccc(NC(=O)Nc3cc(C(F)(F)F)ccc3F)cc2)cn1 | 1.32%
76 | Cc1cc(NCCc2ccccc2)nc(NC(=N)Nc2cccc([N+](=O)[O-])c2)n1 | 6.21%
77 | CNCCNCc1cccc(-c2cccc(-c3nc4cc(F)ccc4[nH]3)c2)c1 | 7%
78 | Cc1cc(=NN=Cc2ccccc2Cl)c2ccc(F)cc2[nH]1 | 0%
79 | Cc1cc(C)c(C)c(S(=O)(=O)N2CCCCC(c3ccc(F)c(F)c3)=N2)c1C | 0.78%
80 | Cc1cccc2nc(-c3ccc(-c4ccc(CNCc5ccc(CN)cc5)cc4)cc3)[nH]c12 | 11.8%
81 | COc1ccc2nccc([C@@H](O)CN3CCC(NCCNc4cccc(F)c4)CC3)c2c1 | 2.9%
82 | CC(CN1CCN(C)CC1)C(=O)Nc1ccc(-c2ccc(-c3nc4ccccc4[nH]3)s2)cc1 (stereo unspecified) | 1.85%
83 | CC(C)(C)CN1C(=O)C(c2ccccc2)(c2ccccc2)N=C1N | 5.77%
84 | O=C(NCCCCN1CCC(c2ccc3c(c2OCCN2CCCC2=O)CCCC3)CC1)c1ccc(-c2ccc(C(F)(F)F)cc2)cc1 | 9.65%
85 | Cc1cc2nc(-c3ccc(C(=O)NC4CCN(Cc5ccccc5)CC4)cc3)[nH]c2cc1C | 0%
86 | O=C(NC1CCC(N2CCCC(OCc3ccccc3)C2)CC1)c1cc2ccccc2[nH]1 (stereo unspecified) | 3.08%
87 | N#Cc1ccc2[nH]c(-c3cc(-c4cccc(F)c4)cnc3N)nc2c1 | 3.7%
88 | O=S(=O)(NCCN1CCCC1)c1ccc(-c2cccc(CNCCc3cccs3)c2)s1 | 9.73%
89 | CS(=O)(=O)c1cccc(-c2cnc3[nH]cc(-c4ccc(CCC(=O)O)cc4)c3c2)c1 | 4.39%
90 | O=C(Cc1cccnc1)N(Cc1ccc(-c2ccc(CNCc3cccnc3)cn2)cc1)C1CCN(Cc2ccccc2)CC1 | 0.69%
91 | CC(C)(C)OC(=O)NCc1ccc(Nc2nnc(-c3cccc(C(=O)NCc4cc(C(F)(F)F)cc(C(F)(F)F)c4)c3)o2)cc1 | 6.02%
